A lower IC50 marks a more sensitive line; a limit (>, <) means that the fit lies beyond the doses tested. AUC sums up the same curve from the lowest dose to the 256-fold higher top dose; it is 1 without any effect and falls as sensitivity rises. A top dose marked as inferred was calculated from the reported fits. For some of these results: Where an entry number is given, a second screen of the drug exists; the two often differ.
Key:
Assay in all cases: Viability of human cancer cell lines after 72 h of drug (GDSC screen)
VX-702 = compound: NC(=O)c1ccc(N(C(N)=O)c2c(F)cccc2F)nc1-c1ccc(F)cc1F [VX-702]; conditions: top dose 2 µM; top dose inferred
Method: (§1)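 Human cancer cell lines in 384-well plates, medium with 10% serum, drug for 72 h over a 256-fold dose range (nine 2-fold or five 4-fold steps up to the top dose). Adherent lines were fixed and stained with the nucleic acid dye Syto60, suspension lines read with resazurin; signal relative to control wells, capped at 0 and 100%. One two-parameter sigmoid per drug and line, fitted in a mixed model over all curves with the slope shared within a line.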

Olaparib = compound: O=C(c1cc(Cc2n[nH]c(=O)c3ccccc23)ccc1F)N1CCN(C(=O)C2CC2)CC1 [Olaparib]
Method: as §1

BIRB 0796 = compound: Cc1ccc(-n2nc(C(C)(C)C)cc2NC(=O)Nc2ccc(OCCN3CCOCC3)c3ccccc23)cc1 [BIRB 0796]; conditions: top dose 10 µM; top dose inferred
Method: as §1

Shikonin = compound: CC(C)=CC[C@@H](O)C1=CC(=O)c2c(O)ccc(O)c2C1=O [Shikonin]; conditions: top dose 16 µM; top dose inferred
Method: as §1

SB-525334 = compound: Cc1cccc(-c2[nH]c(C(C)(C)C)nc2-c2ccc3nccnc3c2)n1 [SB-525334]; conditions: top dose 20 µM; top dose inferred
Method: as §1

BMS-536924 = compound: Cc1cc(N2CCOCC2)cc2[nH]c(-c3c(NC[C@@H](O)c4cccc(Cl)c4)cc[nH]c3=O)nc12 [BMS-536924]
Method: as §1

CGP-082996 (CINK4) = compound: CCNc1cc(NC2CCC(O)CC2)nc(Nc2ccc3c(ccn3Cc3ccccc3)c2)n1 [CGP-082996 (CINK4)]; conditions: top dose 5.12 µM; top dose inferred
Method: as §1

A-770041 = compound: COc1cc(-c2nn([C@H]3CC[C@H](N4CCN(C(C)=O)CC4)CC3)c3ncnc(N)c23)ccc1NC(=O)c1cc2ccccc2n1C [A-770041]; conditions: top dose 5.12 µM; top dose inferred
Method: as §1

Wee1 inhibitor 681640 = compound: O=C1NC(=O)c2c1c(-c1ccccc1Cl)cc1[nH]c3ccc(O)cc3c21 [Wee1 inhibitor 681640]; conditions: top dose 2 µM; top dose inferred
Method: as §1

HG-5-113-01 = compound: CNC(=O)c1ccc(Nc2cc(Nc3ccccc3S(=O)(=O)C(C)C)c3cc[nH]c3n2)nc1 [HG-5-113-01]; conditions: top dose 10 µM; top dose inferred
Method: as §1

[1] = top dose 5 µM, screen: GDSC drug entry 1017, top dose inferred
[2] = top dose 10 µM, screen: GDSC drug entry 1495
[3] = top dose 4 µM, screen: GDSC drug entry 1091, top dose inferred
[4] = top dose 5.12 µM, screen: GDSC drug entry 62

| Cell Line | AUC (VX-702) | IC50 (VX-702) [µM] | AUC (Olaparib; [1]) | IC50 (Olaparib; [1]) [µM] | AUC (Olaparib; [2]) | IC50 (Olaparib; [2]) [µM] | AUC (BIRB 0796) | IC50 (BIRB 0796) [µM] | AUC (Shikonin) | IC50 (Shikonin) [µM] | AUC (SB-525334) | IC50 (SB-525334) [µM] | AUC (BMS-536924; [3]) | IC50 (BMS-536924; [3]) [µM] | AUC (BMS-536924; [4]) | AUC (CGP-082996 (CINK4)) | IC50 (CGP-082996 (CINK4)) [µM] | AUC (A-770041) | IC50 (A-770041) [µM] | AUC (Wee1 inhibitor 681640) | IC50 (Wee1 inhibitor 681640) [µM] | IC50 (BMS-536924; [4]) [µM] | AUC (HG-5-113-01) | IC50 (HG-5-113-01) [µM] |
| --- | --- | --- | --- | --- | --- | --- | --- | --- | --- | --- | --- | --- | --- | --- | --- | --- | --- | --- | --- | --- | --- | --- | --- | --- |
| 697 (lymphoblastic leukaemia, suspension) | 0.966 | > 2 | 0.825 | 2.24 | 0.753 | 2.76 | 0.932 | > 10 | 0.464 | 0.816 | 0.921 | > 20 | 0.915 | 3.86 | 0.715 | 0.853 | 2.83 | 0.795 | 1.86 | 0.875 | 1.32 |  |  |  |
| CP67-MEL (melanoma, adherent) |  |  |  |  |  |  |  |  |  |  |  |  |  |  | 0.597 | 0.817 | > 5.12 | 0.907 | > 5.12 |  |  | 0.718 |  |  |
| Calu-6 (lung adenocarcinoma, adherent) | 0.983 | > 2 | 0.984 | > 5 | 0.958 | > 10 | 0.984 | > 10 | 0.653 | 2.83 | 0.925 | > 20 | 0.945 | > 4 | 0.953 | 0.982 | > 5.12 | 0.946 | > 5.12 | 0.948 | > 2 | > 5.12 |  |  |
| EHEB (lymphoid neoplasm, suspension) | 0.907 | > 2 | 0.961 | > 5 | 0.964 | > 10 | 0.917 | > 10 | 0.607 | 2.25 |  |  | 0.936 | > 4 | 0.884 | 0.977 | > 5.12 | 0.753 | 2.46 | 0.95 | > 2 | > 5.12 |  |  |
| HCE-4 (oesophagus, adherent) |  |  |  |  |  |  |  |  | 0.427 | 0.652 | 0.991 | > 20 | 0.963 | > 4 | 0.893 | 0.87 | 3.65 | 0.727 | 1.26 |  |  | 4.56 |  |  |
| HOP-62 (lung adenocarcinoma, adherent) | 0.986 | > 2 | 0.935 | > 5 | 0.878 | > 10 | 0.948 | > 10 | 0.494 | 0.962 | 0.947 | > 20 | 0.975 | > 4 | 0.646 | 0.927 | > 5.12 | 0.567 | 0.486 | 0.986 | > 2 | 0.812 |  |  |
| JSC-1 (B-cell lymphoma, suspension) | 0.979 | > 2 | 0.974 | > 5 | 0.978 | > 10 |  |  | 0.638 | 2.39 | 0.965 | > 20 |  |  | 0.866 | 0.948 | > 5.12 | 0.977 | > 5.12 | 0.979 | > 2 | 4.5 |  |  |
| KARPAS-620 (haematopoietic neoplasm, suspension) | 0.991 | > 2 | 0.991 | > 5 | 0.99 | > 10 | 0.99 | > 10 | 0.376 | 0.48 | 0.851 | 12.1 | 0.737 | 1.05 | 0.37 | 0.905 | > 5.12 | 0.867 | 3.54 | 0.991 | > 2 | 0.148 |  |  |
| KOPN-8 (B-cell leukaemia, suspension) | 0.99 | > 2 | 0.892 | 4.41 | 0.882 | 8.03 |  |  | 0.336 | 0.377 | 0.96 | > 20 | 0.989 | > 4 | 0.938 | 0.944 | > 5.12 | 0.864 | 3.47 | 0.947 | > 2 | > 5.12 |  |  |
| KP-N-RT-BM-1 (neuroblastoma, semi-adherent) |  |  |  |  |  |  |  |  |  |  |  |  |  |  | 0.692 | 0.967 | > 5.12 | 0.934 | > 5.12 |  |  | 1.32 |  |  |
| LC-2-ad (lung adenocarcinoma, adherent) |  |  |  |  | 0.922 | > 10 | 0.85 | 7.87 | 0.546 | 1.34 | 0.839 | 14.1 | 0.761 | 1.46 | 0.347 | 0.683 | 1.06 | 0.567 | 0.489 | 0.906 | > 2 | 0.119 |  |  |
| MOLT-13 (T-cell lymphoblastic leukaemia, suspension) |  |  | 0.942 | > 5 | 0.892 | 9.27 | 0.989 | > 10 |  |  | 0.948 | > 20 | 0.966 | > 4 | 0.973 |  |  | 0.879 | 4.16 | 0.939 | > 2 | > 5.12 |  |  |
| NCI-H23 (lung adenocarcinoma, adherent) | 0.97 | > 2 |  |  |  |  | 0.968 | > 10 | 0.902 | > 16 | 0.975 | > 20 | 0.947 | > 4 | 0.871 | 0.987 | > 5.12 | 0.969 | > 5.12 | 0.837 | 1.32 | 4.74 |  |  |
| NCI-H322M (lung adenocarcinoma, suspension) | 0.967 | > 2 |  |  |  |  | 0.986 | > 10 | 0.74 | 5.83 | 0.896 | > 20 | 0.952 | > 4 | 0.896 | 0.936 | > 5.12 | 0.925 | > 5.12 | 0.965 | > 2 | > 5.12 |  |  |
| NCI-H1666 (lung adenocarcinoma, semi-adherent) | 0.969 | > 2 | 0.941 | > 5 | 0.924 | > 10 |  |  | 0.449 | 0.716 | 0.979 | > 20 | 0.764 | 1.58 | 0.98 | 0.985 | > 5.12 | 0.986 | > 5.12 |  |  | > 5.12 |  |  |
| T84 (large intestine, adherent) | 0.989 | > 2 | 0.989 | > 5 | 0.966 | > 10 | 0.989 | > 10 | 0.742 | 5.01 | 0.96 | > 20 | 0.897 | > 4 |  |  |  |  |  | 0.987 | > 2 |  | 0.821 | 5.94 |
| TGBC24TKB (biliary tract, adherent) |  |  |  |  | 0.988 | > 10 |  |  | 0.77 | 5.71 | 0.98 | > 20 | 0.739 | 1.14 | 0.467 | 0.855 | 3.67 | 0.639 | 0.754 |  |  | 0.262 |  |  |
| TMK-1 (stomach, adherent) | 0.958 | > 2 | 0.985 | > 5 | 0.938 | > 10 | 0.972 | > 10 | 0.548 | 1.36 | 0.968 | > 20 | 0.792 | 1.94 |  |  |  |  |  | 0.985 | > 2 |  | 0.748 | 3.4 |
| TT (thyroid, adherent) | 0.978 | > 2 | 0.975 | > 5 | 0.954 | > 10 | 0.841 | > 10 | 0.611 | 2.28 | 0.976 | > 20 | 0.822 | 3.64 |  |  |  |  |  | 0.961 | > 2 |  | 0.832 | > 10 |
| UACC-62 (melanoma, adherent) | 0.988 | > 2 | 0.98 | > 5 | 0.953 | > 10 | 0.967 | > 10 | 0.545 | 1.32 | 0.953 | > 20 | 0.957 | > 4 |  |  |  |  |  | 0.885 | > 2 |  | 0.814 | 5.39 |
| UACC-893 (breast, adherent) | 0.982 | > 2 | 0.98 | > 5 | 0.857 | > 10 | 0.95 | > 10 | 0.933 | > 16 | 0.931 | > 20 | 0.975 | > 4 |  |  |  |  |  | 0.969 | > 2 |  | 0.952 | > 10 |
| VMRC-RCZ (kidney, adherent) | 0.953 | > 2 | 0.981 | > 5 | 0.972 | > 10 | 0.981 | > 10 | 0.41 | 0.541 | 0.977 | > 20 | 0.95 | > 4 |  |  |  |  |  | 0.959 | > 2 |  | 0.821 | 7.06 |
| WM35 (melanoma, adherent) | 0.975 | > 2 | 0.933 | > 5 | 0.949 | > 10 | 0.963 | > 10 | 0.441 | 0.691 | 0.71 | 4.91 | 0.792 | 1.82 |  |  |  |  |  | 0.813 | 1.09 |  | 0.824 | 6.01 |
| WM1552C (melanoma, adherent) | 0.988 | > 2 | 0.988 | > 5 | 0.977 | > 10 | 0.978 | > 10 | 0.568 | 1.54 | 0.983 | > 20 | 0.915 | > 4 |  |  |  |  |  | 0.968 | > 2 |  | 0.815 | 5.52 |
| WM-115 (melanoma, adherent) | 0.952 | > 2 | 0.955 | > 5 | 0.966 | > 10 | 0.982 | > 10 | 0.759 | 6.77 | 0.754 | 8.15 | 0.98 | > 4 |  |  |  |  |  | 0.979 | > 2 |  | 0.907 | > 10 |
| huH-1 (liver, adherent) | 0.956 | > 2 | 0.967 | > 5 | 0.939 | > 10 | 0.928 | > 10 | 0.79 | 9.04 | 0.984 | > 20 | 0.874 | > 4 |  |  |  |  |  | 0.928 | > 2 |  | 0.836 | 8.98 |
